This is an account of results in article PMC10726135.

The other results are listed elsewhere or left out. At the low end of the ranking, values are background and their order means little. The protein was read in a cell extract, so binding may be indirect.

In this test the target is T1, HNF4alpha8 (COS-7 nuclear extract) (UniProt P41235-5).
T1 sequence: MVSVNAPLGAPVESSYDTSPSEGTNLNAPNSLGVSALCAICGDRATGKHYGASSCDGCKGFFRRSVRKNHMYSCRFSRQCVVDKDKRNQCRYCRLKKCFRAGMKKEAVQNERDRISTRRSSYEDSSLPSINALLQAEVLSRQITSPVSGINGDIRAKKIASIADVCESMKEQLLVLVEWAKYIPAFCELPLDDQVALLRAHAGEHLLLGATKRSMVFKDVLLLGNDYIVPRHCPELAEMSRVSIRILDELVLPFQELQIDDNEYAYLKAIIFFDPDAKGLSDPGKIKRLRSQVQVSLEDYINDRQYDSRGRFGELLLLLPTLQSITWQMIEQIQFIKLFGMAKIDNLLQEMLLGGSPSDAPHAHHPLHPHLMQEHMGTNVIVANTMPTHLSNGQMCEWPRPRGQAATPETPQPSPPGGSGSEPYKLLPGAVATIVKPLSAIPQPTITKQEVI
In words: protein-binding microarray. The note with it: COS-7 nuclear extract on double-stranded Agilent 4x180k PBM; binding buffer, salt, pH and temperature not given; high values mean tight binding; double strand, one strand shown; sequences stand for … in …GCCTAGGGAGATTAGAGTATCGGTCGA
As to AATATTCTGGCTTCTCGTGAGTATTTTTTC, the binding signal (log2 normalized intensity) is 1.17. As to ATTCTAATCCTCTGGTCTTTGCCCCAGCTC, the binding signal (log2 normalized intensity) was 3.77. With AGAATGGGCCAAGCTTAGGAATTCCAAGAA, the binding signal (log2 normalized intensity) is -1.22. Regarding CCCTCACTGAATATGTTCGGGAGACATGTG, the binding signal (log2 normalized intensity) was 1.67. Turning to AGCACACACGAGCTGTGCGCTTAGTCCATG, the binding signal (log2 normalized intensity) is -1.38. For the sequence CATGTAACCAAAATGCCAATAGTGGCTTTG, the binding signal (log2 normalized intensity) is -1.28.

For AAGGACACAACAGAATGTGACTGCCCTCTC, the binding signal (log2 normalized intensity) amounted to 2.6. With GGGGGAGGTGCAGAGAGGGGCAGGGTTCAC the figure was 2.81; with GCCTGGTCCGCCCTTCCCCGCTCTCCCCGC, 3.87. Turning to TGGATTGTACTGTGTCTTGATCTTGCAACT, the binding signal (log2 normalized intensity) amounted to 1.56. ATCCTGAAAACAAATAGAGCAGACTATTAT: the binding signal (log2 normalized intensity) is -1.35.

With GTAGAGCTTATCAAGGCAACTTTGGGCCAA, the binding signal (log2 normalized intensity) is -1.32. With TGTCTCTGGTTGAAGGGGAGGTTATCTTGG the figure was 1.48. Consider ATCTTCTTACCCCTTTGCTGATTACCTCAA, for which the binding signal (log2 normalized intensity) is 1.55. Turning to TGTGGGCCTCACACCCTCTAGGGTAGATAA, the binding signal (log2 normalized intensity) is -1.33. Take AAGGATTAGCAGATAAATCTAGGCCTAGGC: the binding signal (log2 normalized intensity) was -1.1.

As for AATCCTGGATTCCTCCAGCCCTCCTCTCTG, the binding signal (log2 normalized intensity) is -0.791. With TAGGCCACCTGTGTCAACATGGACTTTGTT, the binding signal (log2 normalized intensity) is 6.25.

As for TCCTTCACTAAAGTTACAAGATCTTTGGAC, the binding signal (log2 normalized intensity) came out at 3.41. With CAAACACTCATTTCACATTGGTGCCCTTTG the figure was 4.06; with GATAACCTCAAAGAGCATGGCGCCAGGGAG, -1.15. With GAATCTTAACCAAAGTGTGATTAACAAGCA the figure was -1.08; with TAAAGCTGAGGTATTTTTGCAATCCTCCAC, -0.919; with TGACACAGCTGGCCCATGGGCACCTCGTCC, -1.43. Consider CTTTTGTGCTCTGTACCCGGCTGCCCGATA, for which the binding signal (log2 normalized intensity) stood at 0.932. With CTCTTAGTGAAGGATGGGGACCTTGTTACC the figure was 2.04; with CTTTGCTCCCACCCTGCAATTCCCCTGGGC, 3.4; with ATTATCCCCCGCAACTATTTATGAGTCTTG, 1.75.

With TATACATTTTCCCACTTGTATGTCCAAGGG, the binding signal (log2 normalized intensity) was 1.25. For the sequence ACAATGTGGGGGTCGGGGCACTGGTCCCCT, the binding signal (log2 normalized intensity) worked out at 1.26. With AGAAATGGCCTTAGGGTGAGGCATCTGGAC the figure was 0.167; with TGACAGGTTTCTTGCTGAAGGTAGGACAGG, 0.122.

On to AAGTGGTATCCTGCAGTCAGTCTGATTGGT, for which the binding signal (log2 normalized intensity) is 0.637. On to AAAGCCAACAGTACAGCCTTTGATCTACAG, for which the binding signal (log2 normalized intensity) was -1.24. For ATGCCAAGTTTCAGGCTATGAATGAAGTCT, the binding signal (log2 normalized intensity) is -1.05. Consider TGCCGGGAAAGGCATACGTGCTTAATCCTG, for which the binding signal (log2 normalized intensity) is -1.2. Turning to TATACAGCGTCTAAGAAGATAACATATACT, the binding signal (log2 normalized intensity) was -1.33. Take GTTTGAAGGCTCCGGAAACGTATGACTTTG: the binding signal (log2 normalized intensity) came out at 0.757. With CCCAGCCACCAAATCAATCAAACTCTCTGT the figure was -1.41; with TTGTACGCGTCGAACTAGCTTGGTGCAGGG, -0.186; with TTTCCGAGGAGAGCAAACACCAAGGGCAGA, -1.01.

Consider TCTTTGTAGGAAGGCTTTGAAGTCTGGTGG, for which the binding signal (log2 normalized intensity) worked out at 0.67. With ACTGAGGGGTGGGGACCAGTGGGGGGAAGC, the binding signal (log2 normalized intensity) is -1.18. As to AATATTTGCTGTCTCTTCCACCTGGAATGC, the binding signal (log2 normalized intensity) came to 0.79. Regarding TGCAAGCACACTGTCCTGCTTTGAAGATAA, the binding signal (log2 normalized intensity) is -0.689. With TTTCCGCTAAGTCCAAAGGTAAAAACTGGC the figure was 3.83; with TTTGACACAAAGGGAGGCCTAGACACAGAC, -1.42; with AACTCCAGCTGGGCATTAAAGGATATCATC, -1.14. GAGAGTTCCCTTGGAATGCCAGATGACCTT: the binding signal (log2 normalized intensity) stood at 4.6. For the sequence TCTGCACAAAATACAAGTCGTAAAGACCTT, the binding signal (log2 normalized intensity) turned out to be 0.877. With TATCCCGCTGCTTCCACCAGGGCTAGACCC, the binding signal (log2 normalized intensity) is -1.25.

Regarding GAAGGTCAGGAGCCCCACAGAGCAAAGGTC, the binding signal (log2 normalized intensity) is 7.03. Regarding CAGAGCCTCCCCATTGTAGATTCAATAATA, the binding signal (log2 normalized intensity) is 1.29.

Take CCCTTCCCCCAACAGGGCTCCTGTTCAGCA: the binding signal (log2 normalized intensity) worked out at 2.82. For the sequence AAATAAGGAATGTGAAATGAATTTACAAAC, the binding signal (log2 normalized intensity) was -1.24.

Regarding GAGTCATTATCTTTATTATCCCAGTAGAGA, the binding signal (log2 normalized intensity) stood at 1.51. On to GAGCAGGCCATGTGCAGAGGAGGGGGCAGG, for which the binding signal (log2 normalized intensity) is -1.33. Regarding TGTGAAATGAATTTACAAACAAATGCAAAA, the binding signal (log2 normalized intensity) was -1.3. With ATTTTGCATTGCTCACATAGCTGGGACTGT the figure was 0.108; with GTGTGTGTGTGTGTGTCTGTAGTTTTCGTT, 2.47; with AGACTTGGGGCCAAAAAATTCCAGGCACAG, -1.42. As to TACTTTGCTTTTATCTACCAGGATGTGTGA, the binding signal (log2 normalized intensity) was determined as 1.78. Take GGGTGTGAGAGAGAAGGCAAGATTTTGTCC: the binding signal (log2 normalized intensity) was -0.417. In the case of CCCCTTTCCACTCTACCGTCCTCCCCCACG, the binding signal (log2 normalized intensity) is 4.19. As for AGGGTGAAAGTACAGTGATGTTTGTCAAAT, the binding signal (log2 normalized intensity) was found to be 1.61. With GCCAATCTCTGGCATGTATTTATCAACATT, the binding signal (log2 normalized intensity) amounted to 0.616.

As to ATCTGTGCCACAGGTATTTCTGTTGTTGAT, the binding signal (log2 normalized intensity) is 0.411.

For the sequence CTGTAAAACTCCTGTGCAAGTAATTAAACA, the binding signal (log2 normalized intensity) was -1.14. As for ATCTAAGGACAAAGTCCAAGGAAGGGCAAA, the binding signal (log2 normalized intensity) came to 5.15. With TCTTTCTGGAACCTACAGCTGGGGCCACCT, the binding signal (log2 normalized intensity) was -1.34. For the sequence TCCAAGGCGGTGTGGAGGTCTACCAGGAAT, the binding signal (log2 normalized intensity) was -0.879. With ATTGGAAGCTCTTTCCCTCCACCAAGTTTC the figure was 1.41; with CCCTCGACCTTTGCCCTCCATAAGGGGGAG, 6.74.
